Measurements: PubChem BioAssay AID1346378 (National Center for Advancing Translational Sciences (NCATS), 2018)
“And” between values parts separate entries of the source, which are not always exact repeats. Equal values may be shown once. The whole screen tested about 420,000 compounds, of which about 540 (0.13%) were called active. Inconclusive results, whose numbers are uncertain, are shown with a selection of clear calls. Cut-off read from the data, not from the text of the source: active = activity change below about -50%; inconclusive = mostly about -30% to -49%; inactive = weaker than that.

The molecules below were run against Phosphatidylinositol 4-kinase type 2-alpha (Homo sapiens) (UniProt Q9BTU6) (assay: qHTS for small molecular inhibitors of PI4K2A). Details: purified PI4K2A, ADP-Glo luminescence, 1 h; at 76.9 µM, stronger effect = lower value.
Method in brief: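 Compounds are screened against recombinant PI4K2A using PI as substrate and ATP, the latter dispensed at 300 microM. Reactions run one hour at ambient temperature before ADP-Glo detection; full inhibition defined by wells lacking enzyme.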
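Note: -100% = wells without enzyme as full effect.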

UniProt Q9BTU6, sequence (Q9BTU6 whole entry, looked up): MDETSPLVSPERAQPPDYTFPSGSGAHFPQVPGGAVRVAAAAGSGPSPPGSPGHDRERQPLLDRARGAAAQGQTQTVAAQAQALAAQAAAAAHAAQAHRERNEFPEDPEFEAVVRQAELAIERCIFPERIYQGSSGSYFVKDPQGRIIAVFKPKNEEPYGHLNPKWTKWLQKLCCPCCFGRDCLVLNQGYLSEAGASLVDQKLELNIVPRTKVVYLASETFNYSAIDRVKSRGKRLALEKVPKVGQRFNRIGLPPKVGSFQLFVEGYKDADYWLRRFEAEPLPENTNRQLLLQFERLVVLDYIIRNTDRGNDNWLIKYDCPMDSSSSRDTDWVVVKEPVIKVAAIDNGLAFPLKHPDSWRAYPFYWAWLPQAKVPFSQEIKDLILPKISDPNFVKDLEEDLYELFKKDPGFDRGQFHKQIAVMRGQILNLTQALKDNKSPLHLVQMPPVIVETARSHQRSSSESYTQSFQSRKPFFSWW

SMILES | activity change, negative = inhibition
O=C(O)c1ccc(COc2ccccc2C=C2C(=O)c3ccccc3C2=O)cc1 | inconclusive: -31.1%
O=C(Nc1c(-c2ccc3c(c2)OCO3)[nH][nH]c1=O)c1ccc2c(c1)OCO2 | inconclusive: -44.1%
COc1ccc(NC(=O)C(C)Sc2ccccc2)cc1 (configuration not stated) | inactive: 1.35%
Cc1cccc(-c2nnc(SCCC(=O)O)o2)c1 | active: -59.7%
O=C1C=CC(=O)N1c1ccc(Nc2ccccc2)cc1 | inconclusive: -30.3%
CCOC(=O)c1c2c(n(-c3ccc(OC)cc3)c1C)C(=O)C(=O)c1ccccc1-2 | inconclusive: -48.1%
Cc1ccccc1NC1=C/C(=N\S(=O)(=O)c2cccs2)c2ccccc2C1=O | inconclusive: -46.5%
O=C(Nc1ccc2nc(-c3ccco3)c(-c3ccco3)nc2c1)NC1CC1 | inconclusive: -30.7%
O=C(c1ccc([N+](=O)[O-])o1)N1CCN(c2nc3c(Cl)cccc3s2)CC1 | inactive: -1.26%
NS(=O)(=O)c1ccc(NC2=CC(=O)C(=O)c3ccccc32)cc1 | inconclusive: -49.9%
COc1cc(/C=C/C=C2/CC/C(=C/C=C/c3ccc(O)c(OC)c3)C2=O)ccc1O | inconclusive: -31.3%
O=c1c(-c2c(O)cc(O)c3c(=O)cc(-c4ccc(O)cc4)oc23)c(-c2ccc(O)cc2)oc2cc(O)cc(O)c12 | inconclusive: -32.9%
CCN1C(=O)[C@H]2[C@@H](c3ccc(C)cc3)N[C@]3(CCCN(Cc4ccc(C)cc4)C3=O)[C@H]2C1=O | inconclusive: -31.6%
COc1cccc(-n2nnnc2SCC(=O)Nc2ccc3c(c2)OCCO3)c1 | inactive: -0.456%
O=C(Nc1ccc(-c2nc3ccccc3o2)cc1)C1CCCO1 (configuration not stated) | inconclusive: -34.4%
O=C1OC2(c3ccccc31)c1cc(I)c(O)c(I)c1Oc1c2cc(I)c(O)c1I | inconclusive: -33.5%
CCOc1cc(C2Nc3cccc4cccc(c34)N2)ccc1O | inconclusive: -37.2%
Cc1cc(O)c2c(c1O)C(=O)[C@]13C(=C2O)C(=O)[C@@H]2[C@@H](O)[C@H]1[C@@H]1[C@H](O)[C@H]3C(=O)C3=C(O)c4c(O)cc(C)c(O)c4C(=O)[C@]312 | active: -63.5%
CC(=O)c1cc(-c2ccc3[nH]ccc3c2)c(=O)n2c1CCC2 | inactive: 0.266%
C=CCn1c(COc2ccccc2F)nnc1SCC(=O)NC(=O)NCc1ccco1 | inconclusive: -30.8%
Cc1ccc(C(=O)CSC2=C(C#N)C(c3ccco3)C3=C(CCCC3=O)N2)cc1 (configuration not stated) | inconclusive: -41.7%
Cc1ccc(O)c(N=Nc2ccccc2)n1 | active: -82.2% and active: -67.4%

SMILES | activity change, negative = inhibition
COC(=O)Cc1[nH]n(-c2nc3ccccc3s2)c(=O)c1C(C)=O | active: -53%
CC1=NN(c2ccccc2)C(=O)/C1=C/C=C/C=C/N(C)C | inconclusive: -35.7%
O=C(/C=C/c1ccc(Br)o1)OCc1nc2ccsc2c(=O)[nH]1 | inconclusive: -36.6%
COc1ccc(-c2nnc(C)c3nocc23)cc1 | inconclusive: -32.8%
CCOc1cc(/C=C2/C(=O)N(c3ccccc3)N=C2C)ccc1OC(=O)c1cccs1 | active: -52.3%
CC(C)N(C(=O)Nc1ccc2nsnc2c1)C(C)C | active: -68.1%
C=Cc1c(C)c2cc3[nH]c(cc4nc(cc5nc(cc1[nH]2)C(C)=C5CCC(=O)O)C(CCC(=O)O)=C4C)c(C)c3C=C | inconclusive: -35.6%
Cc1ccsc1/C=C1\Oc2cc(O)ccc2C1=O | inconclusive: -36.2%
Cc1ccc(N=Nc2cc(C)ccc2N)cc1 | inconclusive: -39%
O=C(/C=C/Nc1ccc(Br)cc1F)c1ccccc1 | inconclusive: -39.8%
CCCc1cc(=O)oc2cc(C)cc(OCC(=O)N3CCC(C(=O)O)CC3)c12 | inconclusive: -32.8%
O=C1C=CC2(O[C@H](c3ccccc3)[C@@H](c3ccccc3)O2)[C@H](Sc2ccccc2O)C1 | inconclusive: -31.6%
Cc1ccnc(NC(=O)c2ccoc2C)c1 | inconclusive: -48.1%
CCN1C(=O)c2cccc3c(S(=O)(=O)NCc4ccco4)ccc1c23 | inconclusive: -30.2%
O=C1C=CC(=O)c2c(O)c(N3CCN(CCO)CC3)c(Cl)c(O)c21 | active: -56.6%
CCc1cccc(NC(=O)c2cnn(-c3ccccc3)c2C)c1 | inconclusive: -31.7%
O=C(Nc1ncccc1O)c1ccc2c(c1)OCO2 | inconclusive: -31%
O=C(Nc1nc2ccccc2[nH]1)c1ccc(Cl)cc1 | inconclusive: -31.5%
Cc1cc(C)c(S(=O)(=O)Nc2cc(SCC(=O)O)c(O)c3ccccc23)cc1C | inconclusive: -35.4%
COc1cc(SC#N)ccc1N=Cc1c(C)[nH]n(-c2cccc3ccccc23)c1=O | active: -52.6%
CCN1C/C(=C\c2cccc([N+](=O)[O-])c2)C(=O)/C(=C/c2cccc([N+](=O)[O-])c2)C1 | inactive: 4.92%
NS(=O)(=O)c1ccc(NNC(=O)c2ccccc2)cc1 | inactive: 4.88%

SMILES | activity change, negative = inhibition
COCCN(C(=O)COC(=O)c1cc2c(s1)CCC2)c1c(N)n(Cc2ccccc2)c(=O)[nH]c1=O | inconclusive: -45%
S=C(c1ccc2c(c1)OCO2)N1CCN(c2cccc(Cl)c2)CC1 | inactive: -3.43%
O=c1c(Br)ccc(Br)cc1Br | inconclusive: -33.6%
Cc1ccc(C(=O)CC2(O)C(=O)N(CCc3ccccc3)c3ccc(Cl)cc32)cc1 (configuration not stated) | inactive: -16.7%
CCc1nc2ccccc2c(C(=O)OCC(=O)Nc2cccc(S(=O)(=O)N3CCOCC3)c2)c1C | inactive: 1.22%
O=C(O)C1Nc2c(O)cccc2C2C=CCC12 (configuration not stated) | inconclusive: -36.5%
CCn1nc(C)c(/C=N/NC(=O)c2ccoc2C)c1C | inconclusive: -31.7%
O=C1C(Nc2ccc(O)cc2)=C/C(=N/S(=O)(=O)c2cccs2)c2ccccc21 | inconclusive: -45.9%
O=C(CCCCCCCCCCC(=O)NCc1cccnc1)NCc1cccnc1 | inactive: -3.9%
CCc1nnc(NCC(=O)N2CCc3ccccc32)s1 | inconclusive: -36.5%
COc1ccc(OC)c(C(=O)CSc2nc3ncccc3[nH]2)c1 | inconclusive: -33.1%
CC1=NN(c2ccccc2)C(=O)/C1=C/c1ccc(Cl)cc1 | inconclusive: -33.4%
Cc1cc(C)c(S(=O)(=O)/N=C2\C=C(Nc3ccc(C(=O)O)cc3)C(=O)c3ccccc32)c(C)c1 | inconclusive: -41.6%
O=C(Nc1cccc(O)c1)C(=O)Nc1ccccn1 | active: -64.2%
CC[C@H](C)/C=C/C1=CC2=C(Cl)C(=O)[C@@]3(C)OC(=O)C(C(=O)[C@H](C)[C@@H](C)O)=C3C2=CO1 | inconclusive: -31.8%
CC(=O)c1sc(=S)n(-c2ccccc2)c1C | inactive: -0.403%
CCOC(=O)C(=O)Nc1ccc(Oc2ccccc2)cc1 | inactive: -14.5%
CCCCC(=O)NCCNc1nc2c(c(=O)n(C)c(=O)n2C)n1Cc1ccc(F)cc1 | inactive: -7.32%
COc1ccc(/C=C2/C(=O)N(c3ccccc3)N=C2C)cc1Br | inconclusive: -30.3%
O=C(c1ccc(F)cc1)N1CCOCC1 | inactive: 1.61%
O=C(/C=C/c1ccccc1[N+](=O)[O-])N1CCN(c2ccc(F)cc2)CC1 | inconclusive: -31.6%
Cc1ccn2cc(-c3ccc(O)c(O)c3)nc2c1 | inconclusive: -32.7%

SMILES | activity change, negative = inhibition
CN(C)c1cc(Cl)c2nonc2c1N | active: -57%
Nn1cnnc1N/N=C/c1cccc(Cl)c1Cl | inconclusive: -31.8%
O=C(Nc1noc2ccccc12)c1c(F)cccc1F | inconclusive: -37.5%
CCCCc1cc(=O)oc2cc(C)cc(OCc3nn[nH]n3)c12 | inconclusive: -31.8%
Cc1nc2ncccn2c1-c1csc(Nc2ccc(O)cc2)n1 | inactive: -1.37%
Cc1c(Cl)cccc1NC(=O)C1NC(=O)CC1c1ccccc1 (configuration not stated) | inconclusive: -43.2%
CC1(C)C(=O)Nc2ccccc2N1C(=O)CSc1nc(-c2ccccc2)cs1 | inconclusive: -39.8%
Cc1nn(-c2nc3ccccc3[nH]2)c(=O)c2ccccc12 | active: -81.4%
O=C1C(=Cc2cccs2)C(=O)c2ccccc21 | inconclusive: -33.2%
COc1cc(SC)ccc1C(=O)NNC(=O)c1cc(C)oc1C | inconclusive: -42.9%
COc1cccc(-c2n[nH]c(=S)n2Cc2ccco2)c1 | inconclusive: -36.6%
COCCNC(=O)Nc1ccc2nc(-c3ccco3)c(-c3ccco3)nc2c1 | inconclusive: -33%
CCC(=O)c1ccc(Oc2nc3c(c(=O)n(C)c(=O)n3C)n2CC)cc1 | inconclusive: -42.1%
O=C(Nc1ccccc1)C1=C(c2ccccc2)S(=O)(=O)CCS1(=O)=O | inconclusive: -34.5%
O=c1c(O)cccc2cc(O)c(O)c(O)c12 | inconclusive: -30.3%
O=C(O)CCCNc1cc(N2CCN(C(=O)c3ccco3)CC2)c2noc3c2c1C(=O)c1ccccc1-3 | inconclusive: -38.3%
CCCCCCCc1ccc(C2NC(=S)NC3=C2C(=O)c2ccccc23)cc1 (configuration not stated) | inactive: -8.04%
CCN(CC)S(=O)(=O)c1ccc(N2CCOCC2)c(NC(=S)NC(=O)c2ccco2)c1 | inactive: 1.03%
Cc1ccc(S(=O)(=O)N(Cc2ccccc2)c2ccccc2C(=O)NCc2ccco2)cc1 | inactive: -8.14%
O=C(c1ccncc1)N1CC[C@H]2[C@H](CCCN2Cc2cc(F)cc(F)c2)C1 | inactive: 0.389%
O=C(OC12CCCN(C1)/C(=C/c1ccccc1)C2)c1ccccc1 (configuration not stated) | inactive: -1.47%
